This is an account of results in article doi:10.1101/560110 (bioRxiv, 2019).

Data set [1] concerns the molecule itself. Briefly: thioflavin T aggregation assay.
Data set [2] addresses recombinant human tau, full length (tau 2N4R, 441 aa) (human, UniProt P10636-8 1-441). Briefly: thioflavin T aggregation assay.

B1: recombinant human tau fragment encoding […] (domain or fragment)
chain: not shown
Regarding B1, the binding result in data set [1] and in data set [2] was “binds” each time.
